# Results: PubChem BioAssay AID651820 (National Center for Advancing Translational Sciences (NCATS), 2012)
# Hit rate of the full screen: of about 340,000 compounds, about 12,000 (3.5%) were called active. The inconclusive results got no clear call from the source; some entries with a clear call stand among them for comparison. Calls follow the shape of the dose curve; as a rule, active = well fitted inhibition curve with a large enough effect; inconclusive = small, poorly fitted or top-dose-only effect, or another doubt; inactive = no such curve, though single readings can be large or run the other way. No potency is given beside an inconclusive call; the fits are too rough.
# Assay: qHTS Assay for Inhibitors of Hepatitis C Virus (HCV)
# Details: Huh7.5.1 HCVcc-Cre (HCVcc is cell-culture hepatitis C virus) infection, luciferase reporter, 44 h; series mostly up to 41.8 µM
# Outline: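 Compounds are dispensed onto cells plated 4 h earlier at 1,000 per well, with HCVcc-Cre virus (about 0.5 moi) added next. Following 44 h of culture, luminescent signal is measured for 15 sec after 15 min with substrate at room temperature.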
# Potency is read from the fitted curve at half-maximal effect; tags tell the direction and shape of the fitted curve.
row,SMILES,Potency
1,COC(=O)N/N=C(C)\C=C\c1ccco1,inactive
2,Fc1ccc(NC(=S)N/N=C/c2cccc(Br)c2)c(F)c1,inactive
3,CC(=O)c1c(C)[nH]c(C(=O)OCc2nnc(-c3ccccc3)o2)c1C,"inconclusive [inhibitor, single point]"
4,Cc1nc(N2CCN(C(=O)c3ccco3)CC2)nc2c1C(=O)CC(C)C2 (stereo not given),"inconclusive [inhibitor, single point]"
5,O=c1oc2cc(Oc3c([N+](=O)[O-])cc(C(F)(F)F)cc3[N+](=O)[O-])ccc2c2c1CCCC2,active: 3.16 µM
6,COC(=O)c1ccccc1NC(=O)c1cccc(NC(=O)c2ccc(Br)o2)c1C,"inconclusive [inhibitor, partial curve, poor fit]"
7,CC[C@@]1(O)C(=O)OCc2c1cc1n(c2=O)Cc2cc3c(CN(C)C)c(O)ccc3nc2-1,"inconclusive [inhibitor, partial curve, poor fit]"
8,CCc1ccc(CN(C)C(=O)CCc2nnc(CCc3ccccc3OC)o2)nc1,"inconclusive [inhibitor, single point]"
9,COc1ccc(N=Cc2c(O)[nH]c3ccccc23)cc1OC,"inconclusive [inhibitor, partial curve]"
10,CCOc1c(OC(C)=O)ccc(/C=C/c2ccc3cccc(OC)c3n2)c1[N+](=O)[O-],active: 10 µM
11,Cc1ccc(C(=O)CSC2=C(C#N)C(c3ccco3)CC(=O)N2)c(C)c1 (stereo not given),"inconclusive [inhibitor, single point]"
12,CN(C)CCCN(C(=O)c1ccc(S(=O)(=O)N2CCCC2)cc1)c1nc2ccc(Br)cc2s1,"inconclusive [inhibitor, single point]"
13,CC1(C)Cc2c(C#N)c(NCCN3CCOCC3)nc(-c3ccco3)c2CO1,"inconclusive [inhibitor, partial curve]"
14,CCOC(=O)C1=C(CC)Nc2ccccc2N=C1NC(=O)Nc1ccc(Cl)c(Cl)c1,"inconclusive [inhibitor, single point]"
15,CC(=O)c1c(C)[nH]c(C(=O)N(C)C(c2ccccc2)c2ccccc2)c1C,"inconclusive [inhibitor, single point]"
16,COC(=O)N/N=C/C1=CCC2CC1C2(C)C (stereo not given),inactive
17,C=CCn1c(SCC(=O)c2cc(C)n(C(C)COC)c2C)nc2sc(C)c(C)c2c1=O (stereo not given),active: 10 µM
18,CC(C)c1ccc(OCC(=O)NC(=S)Nc2ccc3c4c(cccc24)CC3)cc1,"inconclusive [inhibitor, full curve, poor fit]"
19,N#C/C(=C\c1c[nH]c2ccccc12)C(=O)Nc1ncc(Cc2ccc(Cl)cc2Cl)s1,active: 35.5 µM
20,CCOc1cc(NC(=S)NC)c(OCC)cc1NC(=O)c1ccco1,"inconclusive [inhibitor, single point]"
21,Cc1cc(C)n(-c2ccc(C(=O)C(C#N)c3nc4ccccc4n3C)cc2)n1 (stereo not given),inactive
22,Cc1c(C(=O)NC2CCN(Cc3ccccc3)C2)oc2ccc(Br)cc12 (stereo not given),"inconclusive [inhibitor, full curve]"
23,CCC(=O)NC(=S)Nc1ccc(NC(=O)c2ccco2)cc1,inactive

row,SMILES,Potency
1,O=C(NCCc1ccco1)C(=O)NCCC1CCCCN1S(=O)(=O)c1ccccc1 (stereo not given),"inconclusive [inhibitor, single point]"
2,N#CC1=C(N)Oc2c(ccc3ccccc23)C1c1ccsc1 (stereo not given),"inconclusive [inhibitor, full curve]"
3,O=C(c1ccc(CS(=O)(=O)c2ccc(Br)cc2)o1)N1CCN(c2ccc(F)cc2)CC1,"inconclusive [inhibitor, single point]"
4,CC(=O)C[C@H](O)CC(=O)[C@@H]1OC(=O)[C@@H](C)C/C=C\Cc2ccccc21,inactive
5,c1ccc(NCCCNc2ccccc2)cc1,inactive
6,CCOC(=O)N1CCN(Cc2ccc(F)cc2F)CC1,inactive
7,O=C(Cc1cccc(NC(=O)C2CCN(C(=O)C3CC3)CC2)c1)Nc1cccc(C(=O)N2CCCCC2)c1,inactive
8,CCCC(=O)N1CCN(c2ccc(NC(=O)c3ccc4c(c3)OCCO4)cc2)CC1,inactive
9,Cn1nc(C(C)(C)C)cc1C(=O)NCc1cc(F)cc2c1OCOC2,"inconclusive [inhibitor, full curve]"
10,CCCN1C(=O)c2cc(C(=O)NC3CCCCCC3)ccc2C1O (stereo not given),inactive
11,O=C(/C=C/c1ccccc1)OCN1C(=O)c2ccccc2C1=O,inactive
12,COc1ccc2nc(N3C(=O)/C(=C/c4ccc(Cl)cc4)NC3=S)sc2c1,inactive
13,COc1cccc(-c2cc3nc4c(c(N5CCC6(CC5)OCCO6)n3n2)CCCC4)c1,active: 12.6 µM
14,COc1cc(NC(=O)C2CCCN2C(=O)OCc2ccccc2)cc(OC)c1 (stereo not given),"inconclusive [inhibitor, partial curve]"
15,CCOc1ccc(NC(=O)c2ccc3c(c2)OCCO3)cc1S(=O)(=O)N(CC)CC,active: 2.82 µM
16,Cc1ccc(-n2nc3c(=O)n(CCCC(=O)NCc4cccc(F)c4)nc(C)c3c2C)cc1,"inconclusive [inhibitor, partial curve]"
17,O=C(NCCNC(=O)c1cc(OCC(F)(F)F)ccc1OCC(F)(F)F)Nc1cccc(C(F)(F)F)c1,"inconclusive [inhibitor, single point]"
18,COc1ccc(/[N+]([O-])=C/c2ccco2)cc1,"inconclusive [inhibitor, full curve]"
19,OCC1CCN(Cc2cn(Cc3ccccc3)nc2-c2cc3ccccc3o2)CC1,inactive
20,CC(=O)Nc1nnc(S(=O)(=O)N2CCN(c3ccc(Cl)cc3[N+](=O)[O-])CC2)s1,inactive
21,O=C(CN1CCN(c2ccc(O)cc2)CC1)Nc1ccc(S(=O)(=O)N2CCCC2)cc1,"inconclusive [inhibitor, single point]"
22,CCCNC(=O)C(Cc1cccc(Br)c1)NC(=O)c1ccc(C#N)cc1 (stereo not given),"inconclusive [inhibitor, single point]"
